Read counts are not given, so values of variants with three or more changes are uncertain.
B1: OR4K15 (parent)
chain: GUUAACGGUCAUAGGCCAUGGAAACUAGGAGCACCAUUUCGCUGCCAGUGAAGAAAUGAACAAAGAAAAUCUGGGCCAGGCAGGCAUCAAAAGAAAUAGUCUUGCGCUCAACCAGAAAGUCUGUAAUCAUUUUAAGGGUA

Variants of: B1
Experiment: self-cleavage, relative activity (ratio to wild type); higher = more cleavage; in vitro, sequencing; the parent is a self-cleaving ribozyme

Variant	self-cleavage
A11C A22U A30G A47U	0.62
U9C A22U A117G	2.25
U43C U49C A91G	0.82
G21U A90U A94G A116G U122C	0.95
C17U A36G A96C A118G U124G	0.48
A64G A94G U102C A116G	1.79
U2C G41A A54G A62G A64G A96G	1.11
A18U A24C A117G	2.12
A47G A52G A82G	0.66
A68U A78C A114G U122A	0.06
U9C A11U A135G	1.29
A24C U70C A78G A114U	0.03
U38G A51U A56G A59U G106A	0.03
A54G A62G A114C	0.02
U43C U49A A92G A98C	1.28
A54G A59U U87A	1.21
C32U U38C A90U A126G	1.57
U12C A47C A55G A78G A89G A118G	0.04
G1A A5G A69G A117G U124C	0.48
A69U U97C U139G	1.63
A33G A51U A68G U87C A90G C112U G115A	0

Variant	self-cleavage
A27G A62G A95G U97C G136A	0.12
C85U A91U U124A	0.53
A23G A89G U97C U120G	0.44
A5U U70C A91U U103C	0.35
A22G A23U A118G	0.81
G1C A22G A111G	0
G15A U39C A69G A92G	0.94
C42G A94G A129G	1.17
U3C A82G A86U	0.63
U2C A18C U70A	0.37
A36G U100C U132C	2.31
C17U C42U A55G C113U	0.05
U19A A54G A59U A86G A111G	0.06
C35U A62U U127A	1.52
A22G A56G A60G A90G G115U U120C	0.01
A52G A67U A94G	0.94
A33G A69G A86U A96G	0.47
A52G A63U U102C	1.88
U43C A68U A78U U122A	0.14
U19C G21A A22C U38C A82G	0.61
U72C A91U A111G	0.01

Variant	self-cleavage
A5U A64C G115A A118U	0.15
A24G A98G A114G	0.29
A23U A66G A111G	0.04
A13G A55G C88U A92G	0.61
A18G U57C A94G A110U A117G A125G	1.08
U43C A69G A95G A116U	0.61
A62G U108C A134U	0
A23G A24G U124C A134G	0.74
A24C A64G A78U A86U A110G	0.09
A4G U37C U38C	2.55
G1A A23U A92G	1.67
A51U A54G A59G	1.89
U38C U43A A55G A62U A94G	1.2
U2C A5G A59G A66G U120C	1.38
U19C A36U U127G U132C U139C	0.71
A51G U127A A135U	1.44
U37C A63G A90G	2.07
G28A U43A A55G A66G	1.37
A51U A86G U103A U122C G137A	0.64
U38C A68U U72A	0.39
U43C A51G C77U G79U U87A A110U	0.13

Variant	self-cleavage
A78G U124C U131C	0.18
A27G A78G A82G U87C U103C	0.21
U12C U132C U133A	0.64
A33G A78G C81U	0.11
U9C A63G A69G	0
G58U A67G U120C	0.53
U19C U87C A96U	2.64
A11U A63G A69G A135U	1.16
U19A U39C A118G	1.54
A52G A56G A92G A96U	1.7
A18G U38A A52U A69G	1.34
A23U A82U U97C	0.1
U3A G48A A98G	0.52
A67G A92U U131C	1.38
U70A A82G U130C	0.19
A5G A13U A36G A110G U124C	0.09
A33G A118G A125G	0.01
U49C A92G U108C A114C	0
U39C A66G A126G	0.39
G8A A47G A62G A96G A110G	0.25
U39A U100C U122A	1.39
